# The other results are listed elsewhere or left out. The full chains were built here from the parent and the listed change. Values near 0.05 are background.
# B1: TEV protease; numbered along this chain (parent)
# chain: MGESLFKGPRDYNPISSSICHLTNESDGHTTSLYGIGFGPFIITNKHLFRRNNGTLVVQSLHGVFKVKDTTTLQQHLVDGRDMIIIRMPKDFPPFPQKLKFREPQREERICLVTTNFQTKSMSSMVSDTSCTFPSGDGIFWKHWIQTKDGQCGSPLVSTRDGFIVGIHSASNFTNTNNYFTSVPKNFMELLTNQEAQQWVSGWRLNADSVLWGGHKVFMVKPEEPFQPVKEATQL
# Variants of: B1
# Experiment: raw area under fraction-flipped curve 0-4 h after induction (AUC4h, not background-subtracted), DNA-recorder readout of cleavage of the substrate (dimensionless); higher = more cleavage of the substrate by the protease variant
# Details: temperature: 34 °C; time window: 0-4 h after rhamnose induction
# Method: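 In vivo DNA recorder in E. coli TOP10(DE3) ΔrhaA at 34 °C. Each TEVp single-site mutant (parent TEVp 0) is paired with a single-site variant of the 7-mer TEVs (canonical ENLYFQ|S). The substrate sits between flexible linkers in a Bxb1-sfGFP-TEVs-SsrA fusion, so cleavage stabilises Bxb1 and speeds flipping of a recombination array, read by NGS. The value is the raw area under the fraction-flipped curve over 0-4 h after rhamnose induction (AUC4h), with ≥20 reads per time point. It is not background-subtracted; inactive controls average about 0.047.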
# 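Note: Bxb1 expression induced with 0.2% (w/v) L-rhamnose at OD600 near 0.5, cultures sampled hourly, flipped fraction per protease–substrate barcode pair counted by paired-end Illumina sequencing.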
Variant,area with substrate EALYFQS,area with substrate ECLYFQS,area with substrate EDLYFQS,area with substrate EELYFQS,area with substrate EGLYFQS,area with substrate EILYFQS,area with substrate EKLYFQS,area with substrate EPLYFQS,area with substrate EQLYFQS,area with substrate ESLYFQS,area with substrate ETLYFQS,area with substrate EVLYFQS,area with substrate EFLYFQS,area with substrate EMLYFQS,area with substrate ERLYFQS,area with substrate EWLYFQS,area with substrate EHLYFQS,area with substrate ELLYFQS,area with substrate EYLYFQS
MGESLFKGPRDYNPISSSICHLTNESDGHTTSLYGIGFGPFIITNKHLFRRNNGTLVVQSLHGVFKVKDTTTLQQHLVDGRDMIIIRMPKDFPPFPQKLKFREPQREERICLVTTNFQTKSMSSMVSDTSCTFPQGDGIFWKHWIQTKDGQCGSPLVSTRDGFIVGIHSASNFTNTNNYFTSVPKNFMELLTNQEAQQWVSGWRLNADSVLWGGHKVFMVKPEEPFQPVKEATQL [S135Q],0.0589,0.0931,0.0997,0.0959,0.0675,0.0697,0.0678,0.0936,0.0678,0.0759,0.0671,0.0678,–,–,–,–,–,–,–
MGESLFKGPRDYNPISSSICHLTNESDGHTTSLYGIGFGPFIITNKHLFRRNNGTLVVQSLHGVFKVKDTTTLQQHLVDGRDMIIIRMPKDPPPFPQKLKFREPQREERICLVTTNFQTKSMSSMVSDTSCTFPSGDGIFWKHWIQTKDGQCGSPLVSTRDGFIVGIHSASNFTNTNNYFTSVPKNFMELLTNQEAQQWVSGWRLNADSVLWGGHKVFMVKPEEPFQPVKEATQL [F92P],0.0518,0.068,0.0612,0.0699,0.0531,0.0554,0.071,0.0585,0.0641,0.0667,0.0572,0.0527,0.0596,0.0547,0.0587,0.0603,–,–,–
MGESLFKGPRDYNPISSSICHLTNESDGHTTSLYGIGFGPFIITNKHLFRRNNGTLVVQSLHGVFKVKDTTTLQQHLVDGRDMIIIRMPKDFHPFPQKLKFREPQREERICLVTTNFQTKSMSSMVSDTSCTFPSGDGIFWKHWIQTKDGQCGSPLVSTRDGFIVGIHSASNFTNTNNYFTSVPKNFMELLTNQEAQQWVSGWRLNADSVLWGGHKVFMVKPEEPFQPVKEATQL [P93H],0.115,0.0984,–,0.11,–,–,0.101,–,0.109,0.0855,–,–,–,0.099,0.11,–,0.0934,–,–
MGESLFKGPRDYNPISSSICHLTNESDGHTTSLYGIGFGPFIITNKHLFRRNNGTLVVQSLHGVFKVKDTTTLQQHLVDGRDPIIIRMPKDFPPFPQKLKFREPQREERICLVTTNFQTKSMSSMVSDTSCTFPSGDGIFWKHWIQTKDGQCGSPLVSTRDGFIVGIHSASNFTNTNNYFTSVPKNFMELLTNQEAQQWVSGWRLNADSVLWGGHKVFMVKPEEPFQPVKEATQL [M83P],0.0637,0.0582,–,0.06,–,–,0.0563,0.0584,0.0495,0.0538,–,0.0526,–,0.0633,–,0.0541,–,0.0496,–
MGESLFKGPRDYNPISSSICHLTNESRGHTTSLYGIGFGPFIITNKHLFRRNNGTLVVQSLHGVFKVKDTTTLQQHLVDGRDMIIIRMPKDFPPFPQKLKFREPQREERICLVTTNFQTKSMSSMVSDTSCTFPSGDGIFWKHWIQTKDGQCGSPLVSTRDGFIVGIHSASNFTNTNNYFTSVPKNFMELLTNQEAQQWVSGWRLNADSVLWGGHKVFMVKPEEPFQPVKEATQL [D27R],0.126,0.0698,–,–,–,0.09,0.0871,0.0935,–,–,–,–,0.0973,–,0.0937,–,–,–,0.064
MGESLFKGPRDYNPISSSICHLTNESDGHTTSLYGIGFGPFIITNKHLFRRNEGTLVVQSLHGVFKVKDTTTLQQHLVDGRDMIIIRMPKDFPPFPQKLKFREPQREERICLVTTNFQTKSMSSMVSDTSCTFPSGDGIFWKHWIQTKDGQCGSPLVSTRDGFIVGIHSASNFTNTNNYFTSVPKNFMELLTNQEAQQWVSGWRLNADSVLWGGHKVFMVKPEEPFQPVKEATQL [N53E],0.0909,0.0779,0.0265,0.116,0.0805,0.0995,–,0.141,0.148,0.11,–,0.105,–,0.13,0.105,0.0873,0.119,0.0736,0.107
MGESLFKGPRDYNPISSSICHLTNESDGHTTSLYGIGFGPFIITNKHLFRRNNGTLVVQSLHGVYKVKDTTTLQQHLVDGRDMIIIRMPKDFPPFPQKLKFREPQREERICLVTTNFQTKSMSSMVSDTSCTFPSGDGIFWKHWIQTKDGQCGSPLVSTRDGFIVGIHSASNFTNTNNYFTSVPKNFMELLTNQEAQQWVSGWRLNADSVLWGGHKVFMVKPEEPFQPVKEATQL [F65Y],0.156,0.116,0.135,–,–,0.0941,–,0.142,0.113,0.105,–,0.109,–,0.143,–,0.11,–,0.121,–
MGESLFKGPRDYNPISSSICHLTNESDGHTTSLYGIGFGPFIITNKHLFRRNNGTLVVQSLHGVFKVKDTTTLQQHLVDGRDMIIIRMPKDFPPFPQKLKFREPQREERICLVTTNFQTKSMSSMVSDTSCTFPSGDGIFVKHWIQTKDGQCGSPLVSTRDGFIVGIHSASNFTNTNNYFTSVPKNFMELLTNQEAQQWVSGWRLNADSVLWGGHKVFMVKPEEPFQPVKEATQL [W141V],0.0773,0.0709,0.0818,0.0766,0.0738,0.0644,0.067,0.0932,0.0865,0.0724,–,0.0696,0.0664,–,–,–,0.107,–,–
MGESLFKGPRDYNPISSSICHLTNESDGHTTSLYGIGFGPFIITNKHLFRRNNGTLVVQSLHGVFKVKDTTTLQQHLVDGRDMIIIRMPKDFPPFPQKLKFREPQREERICLVTTNFQTKSMSSMVSDTSCTFPSGDGIFWKHWIQTKDGQCGSPLVSTRDGFIVGIHSASNFTNTNNYFTSVPKNFMELLTNQETQQWVSGWRLNADSVLWGGHKVFMVKPEEPFQPVKEATQL [A196T],0.0801,0.0708,0.12,–,–,0.0697,–,–,0.108,0.0506,–,–,0.0852,0.13,0.047,0.0889,0.103,–,0.0038
